Laboratory results reported in PMC12136788.
The list shows a part of the results.

T1: UNK ZnF1-3 (human, UniProt Q9C0B0 31-174)
T1 sequence: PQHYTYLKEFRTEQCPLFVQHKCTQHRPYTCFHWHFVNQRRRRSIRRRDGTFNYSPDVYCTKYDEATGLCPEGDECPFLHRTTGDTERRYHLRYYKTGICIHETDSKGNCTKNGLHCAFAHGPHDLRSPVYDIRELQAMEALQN

B1: chr9:100389865:100389866:-_ENSG00000136925_ENST00000341170|hu_hu|FALSE|FALSE (ssRNA)
RNA: GGGAGUUCUACAGUCCGACGAUCACAGUGAAGCAGAUAUUCCUUUCAGUUAAAUACCUCCCGCCAGUCCUGAUCCUUUCUAAGGUCUCUCUUCCCUGCACUGUCUCCGCCUAGCAAUUGUCACUGCUCACCGCCCUCGAGCCUCAACAGAGGAUUGAGCAUCA
B2: chr12:51141157:51141158:+_ENSG00000066084_ENST00000301180|hu_hu|FALSE|FALSE (ssRNA)
RNA: GGGAGUUCUACAGUCCGACGAUCGGACAUGCAAAAGAUCAAUAAAGCAGAAAGCAAAAAAUAAAUUAGAGGCCUGAGGAACUACAAAACUAGAUAAUCAGCCUCUAAGUAAAUGGGAGUUGGCCACACUUUGAGAUUAACAGACAACAGAGGAUUGAGCAUCA
B3: chr5:128440902:128440903:+_ENSG00000066583_ENST00000173527|hu_mus|hu_hu_hu_mus_True|58_88 (ssRNA)
RNA: GGGAGUUCUACAGUCCGACGAUCUUGAACGGUGCUGCCAAGUCCUUUAGGGUAUUGUUCCGUUAUGAUAACUGGAAUUCCUAAAAUCCGAGCUCCUUGCAACAGUCUCUGUCCCACACUAAUGAUGUCCCCAAAGUAUUUGAUCAACAGAGGAUUGAGCAUCA
B4: chr3:176767854:176767855:-_ENSG00000177565_ENST00000430069|hu_hu|hu_hu_hu_mus_False|58_98 (ssRNA)
RNA: GGGAGUUCUACAGUCCGACGAUCGACAUCCUUGUUACUUGGAACAUCCUGCCCUCCUUCCCGUAUGCAGUGUCUAAGUACUAACUGCGUAGGGCCACUCGUGCUGUUCUCACUGAGGUUCCAGAUUCUUGCCGUGGAGUCUCCCAACAGAGGAUUGAGCAUCA
B5: chr4:115894766:115894767:+_ENSMUSG00000028698_ENSMUST00000030464|mus_hu|mus_mus_mus_hu_True|48_68 (ssRNA)
RNA: GGGAGUUCUACAGUCCGACGAUCUUCCACACGGAAAUGUACUUCGGGUUUUCCAACGGCCAGUACCGUCCAGCCAAAACUACCCGAUGAGGACAAGCCCCCUCUCUCCUACAGAACACAACAAAAUGCCCCCGAACUUUCAAGCAACAGAGGAUUGAGCAUCA
B6: 129744135_129744255_509_CDS_ENSMUSG00000001052_ENSMUST00000001079|mouse|control|control (ssRNA)
RNA: GGGAGUUCUACAGUCCGACGAUCAGGACCUCUGCCAUACAUCUGCUGUGCUCCUGGUUGGUUUGCUGAGCUGGGAGUCCCCGAAUUUUGUGUUGGUACUGUAUAUGGACGAGAGUAGUAACUAUCACACUGGCUAUCCAAUGGCAACAGAGGAUUGAGCAUCA
B7: chr17:56552419:56552420:-_ENSMUSG00000013236_ENSMUST00000086828|mus_mus|mus_mus_mus_hu_False|1_28 (ssRNA)
RNA: GGGAGUUCUACAGUCCGACGAUCAAAAAAUACACUAUUUAAAAAAAAUGAAAUGUCACGGGAUACAGUUACACUGAGAGUUUUAAAAGAAAGCUGGAUUCUGGUCCUUGCCAAAAGUCCCCAGGCUGCAGAGCGGGGCAGAGGCAACAGAGGAUUGAGCAUCA
B8: chr16:11201500:11201501:-_ENSMUSG00000005846_ENSMUST00000119953|perfect_dup|motif|central (ssRNA)
RNA: GGGAGUUCUACAGUCCGACGAUCGUUGAAUUGGGUUCAUCCUUCGUAAAUAAACAGAUAUCUUCUGAAUCUGAUCGAAUACGGUGAGGCAAGGUCCUGUUCUUUAUCCAGCUGCUUCCGUGCUGUCGGGGCCGCUGGAGUCGACAACAGAGGAUUGAGCAUCA
B9: 33718304_33721134_463_CDS_ENSG00000134759_ENST00000351393|human|control|control (ssRNA)
RNA: GGGAGUUCUACAGUCCGACGAUCUCUGCAAUCAUCAUUGCCACAUGCUAAUAUUGGUACUUCUGGACCCUUUUUAGACCAGAGUCGAACAGCAGAAUCUGCAGCUGCAGAAACGAUCAGUGUACAUAAUGCAGGAUCUGAUGUCAACAGAGGAUUGAGCAUCA
B10: chr14:52433459:52433460:+_ENSG00000186469_ENST00000556752|hu_mus|FALSE|FALSE (ssRNA)
RNA: GGGAGUUCUACAGUCCGACGAUCGAUGGUUCUCCUUCCUCUCUUUAAAUGCUGUGGACGAGAAAGGCGCCCACUUUGCUAGGAACUCUACAUGUAUGUCCCAGGAGCCCCAACACUCUUCAGCCUCCUCUCAGAGACUUAAAGCAACAGAGGAUUGAGCAUCA
B11: chr1:60041781:60041782:+_ENSMUSG00000041040_ENSMUST00000036540|mus_hu|mus_mus_mus_hu_False|28_68 (ssRNA)
RNA: GGGAGUUCUACAGUCCGACGAUCAAGUUUACAAUAGUAAAGUAAAUGCAGUAGUGGCAAAUUUUCUUUACUUUAGUUUCACAAAAGAAAAUCUUUAUAACCCAGUCCAAUCCCAGAACAUAGUGAAAGCUAUAAAUUCUGACUCAACAGAGGAUUGAGCAUCA
B12: 19711551_19711671_88_5pUTR_ENSMUSG00000002808_ENSMUST00000002885|mouse|control|control (ssRNA)
RNA: GGGAGUUCUACAGUCCGACGAUCCUCUCUCGAUUUUCCGUUCCACAGGCUCCUGGCUUGGGGGCUCCGGACACCGGGACACCGGCCUGGGAAAGCCGCGUGAAUCGCCCCAGCUCUUUCUGCUCUGGCGGAGGCUUACCAAAGCAACAGAGGAUUGAGCAUCA
B13: chr16:94664741:94664742:+_ENSMUSG00000040785_ENSMUST00000117648|mus_hu|mus_mus_mus_hu_False|88_88 (ssRNA)
RNA: GGGAGUUCUACAGUCCGACGAUCUGGUACUGAUCUUGGUAGCUGAUACUCAGAAGAAAGGCUGGCCAAGGGUGUAUAUAUGCUGGUGUACUGGGGCAAACCUGGUAACACGUUUAUGUAUGCUGGCGGUGUCUGGGUGAUAUCCAACAGAGGAUUGAGCAUCA
B14: chr1:204375296:204375297:-_ENSG00000158615_ENST00000367188|hu_mus|FALSE|FALSE (ssRNA)
RNA: GGGAGUUCUACAGUCCGACGAUCUGUUCACUUCUUAACAUUGCUGUACAACAGUAAGUCCUUUGACUCGAUCCUCAGUCUAUUAAACAUUUUUUCUCUGUGCUCAAAGGCCAAGCAGUAGCCAAUGGCAACUUCUGUUUCUUGCAACAGAGGAUUGAGCAUCA
B15: chr12:48362563:48362564:+_ENSG00000134291_ENST00000256686|hu_hu|hu_hu_hu_mus_False|88_108 (ssRNA)
RNA: GGGAGUUCUACAGUCCGACGAUCUCCGAAGGGUGAAUCGAUAGACCCAUAGACUCUAAACUGUAAUCACUUUGUAUGGGGAAGGAAAAGAAACGCCAAAAACUUUCCAAAAAGCGGGGGUGGGGUGAGGCGGGAGGGGGAGGUCAACAGAGGAUUGAGCAUCA
B16: 116039567_116040058_1445_CDS_ENSMUSG00000020777_ENSMUST00000066587|mouse|control|control (ssRNA)
RNA: GGGAGUUCUACAGUCCGACGAUCACCAGCAUUGGCUGUCCAGGUAGUAAAAGCCUUCAGCCCAGCUGUGAGGGCAUGAAGCUCAGGCAGCUCACUCAGGUCGCCUUGGCCAAUGCUCUCAUUAAUCCGCAUGUAGGUCUCCUUCAACAGAGGAUUGAGCAUCA
B17: 25636282_25639098_1073_CDS_ENSMUSG00000020646_ENSMUST00000110942|mouse|control|control (ssRNA)
RNA: GGGAGUUCUACAGUCCGACGAUCUGUCUGGAUAUUCCAGUUAUCAAGAAACAUCUUAAAACUUGUUGACAUCUCUAUUUGCUGAAUUCUCAAGUUGGAAAUUAAGUCCCAGCGAGCCACUCCAUUCUUGUCGUAUCCUCUGAACAACAGAGGAUUGAGCAUCA
B18: chr1:60041781:60041782:+_ENSMUSG00000041040_ENSMUST00000036540|mus_hu|mus_mus_mus_hu_False|18_78 (ssRNA)
RNA: GGGAGUUCUACAGUCCGACGAUCAAGUUUACAAUAGUAAAGUAAAUGCAGUAGUGGAAUGGCAAGUUUUAUUUUCCUUCACAAAAGAAAAUCUUUAUAACCCAGUCCUAGUCUUGGCAGAGAAAGCAGCUAUAAAUUCUGACUCAACAGAGGAUUGAGCAUCA
B19: chr6:38652254:38652255:-_ENSG00000124767_ENST00000373365|hu_hu|hu_hu_hu_mus_False|8_98 (ssRNA)
RNA: GGGAGUUCUACAGUCCGACGAUCCGAGAACUUCAUAAUGGGAAAAUCAAGCUUCUGCAGGAGGGUCAGUCCAAGAACCCUCGUAUAAAAAUCCAGGGACUUCUUAGGAUCCUUAAUUCUUAGCAUCGUCUGCUGCAGUAGAAACAACAGAGGAUUGAGCAUCA
B20: chr7:109309172:109309173:-_ENSMUSG00000063550_ENSMUST00000070165|mus_hu|FALSE|FALSE (ssRNA)
RNA: GGGAGUUCUACAGUCCGACGAUCUGACUUGGCUGUGCCUGUUGUUUGUAAAGCCUUUGGCCGGACUCUAGUGGCAGGGCGGGGUGUCAGUUUAUAAUGAGUAGGUGUAGUAAGAGCCUUCUGGGCUGCUGGAUUUGUUGGUUUCAACAGAGGAUUGAGCAUCA
B21: chr1:163112212:163112213:-_ENSG00000143248_ENST00000313961|hu_hu|hu_hu_hu_mus_False|48_78 (ssRNA)
RNA: GGGAGUUCUACAGUCCGACGAUCUUUUAUUAUCAGUAAGAGUGAGUUACAUACUAGAUAAAGUAUUGGAUACAAUAAUCAGGAAACAAACACAAUUGGUCCAGAAUUUAAAACUUUAUGAGCGAAGUGCUGGCACAGGACUUACAACAGAGGAUUGAGCAUCA
B22: chr10:127947519:127947520:-_ENSMUSG00000025366_ENSMUST00000026427|mus_mus|FALSE|FALSE (ssRNA)
RNA: GGGAGUUCUACAGUCCGACGAUCGCUCAGGUCCCUGCCCUGGGAGCCCGCAGGAUAAAGGCCGUGCAGAAAGGAGUAACAUGUGAUCCUCUUUGGUCAAGCAAAGACCCAUAUACGGGCCCAGAAGGCAAAAGGGCACAGGCUCAACAGAGGAUUGAGCAUCA

Molecular target: T1, UNK ZnF1-3
Experiment: nsRBNS (natural sequence RNA bind-n-seq); RBNS binding buffer (assumed for nsRBNS): 25 mM Tris pH 7.5, 150 mM KCl, 3 mM MgCl2, 0.01% Triton X-100, 500 ug/ml BSA, 20 U/ml SUPERase-In, 4 C; UNK is unkempt and MSI1 is Musashi-1; names of the RNAs are library labels; protein concentration not given here; high values mean tight binding

Going from B1 to B2, the binding signal rises from 0.915 enrichment R to 1.34 enrichment R.

Going from B3 to B4, the binding signal falls from 0.955 enrichment R to 0.734 enrichment R.

Going from B5 to B6, the binding signal falls from 1.19 enrichment R to 0.992 enrichment R.

Going from B7 to B8, the binding signal falls from 3.13 enrichment R to 0.351 enrichment R.

Compared with B9, B10 is lower in binding signal: 0.897 enrichment R for the first, 0.807 enrichment R for the second.

First: B11
Second: B12
The binding signal of the first is lower: 0.374 enrichment R for the first, 0.832 enrichment R for the second.

Going from B13 to B14, the binding signal falls from 0.998 enrichment R to 0.632 enrichment R.

First: B15
Second: B16
The binding signal of the first is higher: 2.14 enrichment R for the first, 0.651 enrichment R for the second.

First: B17
Second: B18
The binding signal of the first is lower: 0.887 enrichment R for the first, 1.01 enrichment R for the second.

Going from B19 to B20, the binding signal falls from 0.92 enrichment R to 0.804 enrichment R.

Going from B21 to B22, the binding signal rises from 1.18 enrichment R to 1.21 enrichment R.
